The other results are listed elsewhere or left out.
Tests used:
Test in all cases: glycan array binding signal (z-score within array); higher = stronger binding
Conditions in all cases: glycan notation: IUPAC condensed, linker removed
Glc(a1-6)Glc(a1-6)Glc = biological target: Glc(a1-6)Glc(a1-6)Glc
Procedure, shortened: (§1)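 From the Consortium for Functional Glycomics database, 3228 arrays were curated, keeping only those whose protein sequence was available. Binding is given as a within-array Z-score averaged across arrays sharing a protein sequence and across linkers. Negative Z-scores can be read as non-binding.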

Glc(b1-4)Glc = biological target: Glc(b1-4)Glc
Procedure, shortened: as §1

Glc(b1-6)Glc = biological target: Glc(b1-6)Glc
Procedure, shortened: as §1

GlcA(b1-3)Gal = biological target: GlcA(b1-3)Gal
Procedure, shortened: as §1

GlcA(b1-3)GlcNAc = biological target: GlcA(b1-3)GlcNAc
Procedure, shortened: as §1

GlcA(b1-6)Gal = biological target: GlcA(b1-6)Gal
Procedure, shortened: as §1

[1] = biological target: GlcNAc(a1-3)Gal(b1-4)GlcNAc
Procedure, shortened: as §1

[2] = biological target: GlcNAc(a1-4)Gal(b1-3)GlcNAc
Procedure, shortened: as §1

[3] = biological target: GlcNAc(a1-4)Gal(b1-4)GalNAc
Procedure, shortened: as §1

[4] = biological target: GlcNAc(a1-4)Gal(b1-4)GlcNAc
Procedure, shortened: as §1

[5] = biological target: GlcNAc(a1-4)Gal(b1-4)GlcNAc(b1-3)Gal(b1-4)Glc
Procedure, shortened: as §1

[6] = biological target: GlcNAc(a1-4)Gal(b1-4)GlcNAc(b1-3)Gal(b1-4)GlcNAc
Procedure, shortened: as §1

[7] = biological target: GlcNAc(a1-4)Gal(b1-4)GlcNAc(b1-3)Gal(b1-4)GlcNAc(b1-3)Gal(b1-4)GlcNAc
Procedure, shortened: as §1

[8] = biological target: GlcNAc(a1-4)Gal(b1-4)GlcNAc(b1-3)Gal(b1-4)[Fuc(a1-3)]GlcNAc(b1-3)Gal(b1-4)[Fuc(a1-3)]GlcNAc
Procedure, shortened: as §1

[9] = biological target: GlcNAc(a1-6)Gal(b1-4)GlcNAc
Procedure, shortened: as §1

[10] = biological target: GlcNAc(b1-2)Gal(b1-3)GalNAc
Procedure, shortened: as §1

[11] = biological target: GlcNAc(b1-2)Man(a1-3)[GlcNAc(b1-2)Man(a1-6)]Man(b1-4)GlcNAc(b1-4)GlcNAc
Procedure, shortened: as §1

[12] = biological target: GlcNAc(b1-2)Man(a1-3)[GlcNAc(b1-2)Man(a1-6)]Man(b1-4)GlcNAc(b1-4)[Fuc(a1-6)]GlcNAc
Procedure, shortened: as §1

[13] = biological target: GlcNAc(b1-2)[GlcNAc(b1-4)]Man(a1-3)[GlcNAc(b1-2)Man(a1-6)]Man(b1-4)GlcNAc(b1-4)GlcNAc
Procedure, shortened: as §1

GlcNAc(b1-3)Gal = biological target: GlcNAc(b1-3)Gal
Procedure, shortened: as §1

[14] = biological target: GlcNAc(b1-3)Gal(b1-3)GalNAc
Procedure, shortened: as §1

GlcNAc(b1-3)Gal(b1-4)Glc = biological target: GlcNAc(b1-3)Gal(b1-4)Glc
Procedure, shortened: as §1

[15] = biological target: GlcNAc(b1-3)Gal(b1-4)GlcNAc
Procedure, shortened: as §1

[16] = biological target: GlcNAc(b1-3)Gal(b1-4)GlcNAc(b1-3)Gal(b1-4)GlcNAc
Procedure, shortened: as §1

GlcNAc(b1-3)GalNAc = biological target: GlcNAc(b1-3)GalNAc
Procedure, shortened: as §1

GlcNAc(b1-3)Man = biological target: GlcNAc(b1-3)Man
Procedure, shortened: as §1

[17] = biological target: GlcNAc(b1-3)[GlcNAc(b1-4)][GlcNAc(b1-6)]GlcNAc
Procedure, shortened: as §1

[18] = biological target: GlcNAc(b1-3)[GlcNAc(b1-6)]Gal(b1-4)GlcNAc
Procedure, shortened: as §1

[19] = biological target: GlcNAc(b1-3)[GlcNAc(b1-6)]GalNAc
Procedure, shortened: as §1

[20] = biological target: GlcNAc(b1-4)Gal(b1-4)GlcNAc
Procedure, shortened: as §1

GlcNAc(b1-4)GlcNAc = biological target: GlcNAc(b1-4)GlcNAc
Procedure, shortened: as §1

[21] = biological target: GlcNAc(b1-4)GlcNAc(b1-4)GlcNAc
Procedure, shortened: as §1

[22] = biological target: GlcNAc(b1-4)GlcNAc(b1-4)GlcNAc(b1-4)GlcNAc(b1-4)GlcNAc
Procedure, shortened: as §1

[23] = biological target: GlcNAc(b1-4)GlcNAc(b1-4)GlcNAc(b1-4)GlcNAc(b1-4)GlcNAc(b1-4)GlcNAc
Procedure, shortened: as §1

[24] = biological target: GlcNAc(b1-4)[GlcNAc(b1-6)]GalNAc
Procedure, shortened: as §1

[25] = biological target: GlcNAc(b1-6)Gal(b1-4)GlcNAc
Procedure, shortened: as §1

GlcNAc(b1-6)GalNAc = biological target: GlcNAc(b1-6)GalNAc
Procedure, shortened: as §1

GlcNAc3Prop(b1-4)GlcNAc = biological target: GlcNAc3Prop(b1-4)GlcNAc
Procedure, shortened: as §1

B1: Pp2-A2 (Arabidopsis thaliana), Q07098 (protein)
chain: MPSNGDLDRQIEQLMECKPLSEADVRTLCDQARAILVEEYNVQPVKCPVTVCGDIHGQFYDLIELFRIGGNAPDTNYLFMGDYVDRGYYSVETVSLLVALKVRYRDRLTILRGNHESRQITQVYGFYDECLRKYGNANVWKYFTDLFDYLPLTALIESQVFCLHGGLSPSLDTLDNIRSLDRIQEVPHEGPMCDLLWSDPDDRCGWGISPRGAGYTFGQDIAAQFNHNNGLSLISRAHQLVMEGFNWCQDKNVVTVFSAPNYCYRCGNMAAILEIGENMEQNFLQFDPAPRQVEPDTTRKTPDYFL
Glc(a1-6)Glc(a1-6)Glc
  glycan array binding signal (z-score): 0.161
Glc(b1-4)Glc
  glycan array binding signal (z-score): -0.143
Glc(b1-6)Glc
  glycan array binding signal (z-score): 0.607
GlcA(b1-3)Gal
  glycan array binding signal (z-score): 0.275
GlcA(b1-3)GlcNAc
  glycan array binding signal (z-score): 0.421
GlcA(b1-6)Gal
  glycan array binding signal (z-score): 0.706
[1]
  glycan array binding signal (z-score): -0.817
[2]
  glycan array binding signal (z-score): -0.392
[3]
  glycan array binding signal (z-score): -0.107
[4]
  glycan array binding signal (z-score): -0.247
[5]
  glycan array binding signal (z-score): -0.314
[6]
  glycan array binding signal (z-score): 0.102
[7]
  glycan array binding signal (z-score): -0.327
[8]
  glycan array binding signal (z-score): 5.17
[9]
  glycan array binding signal (z-score): -0.835
[10]
  glycan array binding signal (z-score): -0.723
[11]
  glycan array binding signal (z-score): -0.506
[12]
  glycan array binding signal (z-score): 3.08
[13]
  glycan array binding signal (z-score): -0.49
GlcNAc(b1-3)Gal
  glycan array binding signal (z-score): -0.346
[14]
  glycan array binding signal (z-score): -0.525
GlcNAc(b1-3)Gal(b1-4)Glc
  glycan array binding signal (z-score): -0.721
[15]
  glycan array binding signal (z-score): -0.479
[16]
  glycan array binding signal (z-score): -0.721
GlcNAc(b1-3)GalNAc
  glycan array binding signal (z-score): -0.702
GlcNAc(b1-3)Man
  glycan array binding signal (z-score): -0.611
[17]
  glycan array binding signal (z-score): -0.544
[18]
  glycan array binding signal (z-score): -0.375
[19]
  glycan array binding signal (z-score): -0.746
[20]
  glycan array binding signal (z-score): -0.624
GlcNAc(b1-4)GlcNAc
  glycan array binding signal (z-score): -0.311
[21]
  glycan array binding signal (z-score): -0.415
[22]
  glycan array binding signal (z-score): 0.035
[23]
  glycan array binding signal (z-score): -0.534
[24]
  glycan array binding signal (z-score): -0.771
[25]
  glycan array binding signal (z-score): -1
GlcNAc(b1-6)GalNAc
  glycan array binding signal (z-score): -0.431
GlcNAc3Prop(b1-4)GlcNAc
  glycan array binding signal (z-score): 0.106

Reference: the supplement of paper PMC8728848
